In PMC12136788:
Some of the results follow.

T1: UNK ZnF1-3 (human, UniProt Q9C0B0 31-174)
T1 sequence: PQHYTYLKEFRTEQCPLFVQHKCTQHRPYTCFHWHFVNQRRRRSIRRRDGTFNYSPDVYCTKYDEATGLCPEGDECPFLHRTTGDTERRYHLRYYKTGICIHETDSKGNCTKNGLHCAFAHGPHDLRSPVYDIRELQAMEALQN

B1: chr7:30656748:30656749:+_ENSG00000106105_ENST00000389266|hu_mus|FALSE|FALSE (ssRNA)
RNA: GGGAGUUCUACAGUCCGACGAUCAUCAGGAGAUAUUCCAACCUUCGUGAGGUAGAGGUAGAUGCGGCCAAUAAAAUAGCCUAAUACUGAGUUGUUAAUCACACCCUGUUCAACAGCAUCUCCCAGACGCAUCUUCCGAGCAGACAACAGAGGAUUGAGCAUCA
B2: 77918886_77921563_1784_CDS_ENSG00000167291_ENST00000310924|human|control|control (ssRNA)
RNA: GGGAGUUCUACAGUCCGACGAUCCAGUUGUUUCUCCAUGUCCUCGUCCCGGGGUGAGCUGACGAAGAUCGUGUUCUGCAUCAAACCCACAAAGCACCAGAAGGUGUCUGACUCAUCCAGGACCUCGGCCAAGAUGGGCGCCACCAACAGAGGAUUGAGCAUCA
B3: chr1:39469031:39469032:+_ENSG00000174574_ENST00000432648|hu_hu|motif|central (ssRNA)
RNA: GGGAGUUCUACAGUCCGACGAUCAUACCGUCGCAUAAUCUGAUCAUGUGUGAAUUUCACAAAAGAUUCAUAUUGUUCUGCGGGUUUGGUAUUGAGGAUUUGCUCAUACUCCUCCCGAAUUUUAUCUUCAUAGUCUUUUAAGAGCAACAGAGGAUUGAGCAUCA
B4: chrX:98862621:98862622:+_ENSMUSG00000034160_ENSMUST00000044475|mus_hu|mus_mus_mus_hu_False|68_68 (ssRNA)
RNA: GGGAGUUCUACAGUCCGACGAUCCUGCAUCUCCUUUAGAGUGUUUCCCAUAUUAGAGUAGGCAUCAGCAAAUGUAGGACUGAUUCGAAUAGCCUCCUUAUAAUGCAUCAGAGCUUCCUGCAGUUUUCCCUGCUGCUGCAGUACCAACAGAGGAUUGAGCAUCA
B5: chr17:65337090:65337091:-_ENSG00000197170_ENST00000584008|hu_hu|motif|central (ssRNA)
RNA: GGGAGUUCUACAGUCCGACGAUCACCAGUCAUUUAAUAAAUUAUUUGGAUCCUUGGGUCUCUGGAAGUUGAUAAUUCCUGCGGAUCUGUCUACUUUAGCAAAGAUGGUCUUGUUAACUACUAGAUUUGAGAGAAAGGCUUCGGCAACAGAGGAUUGAGCAUCA
B6: chr11:18503389:18503390:-_ENSG00000074319_ENST00000251968|hu_hu|hu_hu_hu_mus_True|88_108 (ssRNA)
RNA: GGGAGUUCUACAGUCCGACGAUCAUUUUCCAUUUUUUCCAGAGCAGAACUGAGUUCUUCAUCCUUCUUUUUCAAAAGUUCUAUGUUUUUAUCAACUUCAGCUACUUCUUGAUCUAAGCGGGUGACCAUCUCUUCCAGUUUCUGCAACAGAGGAUUGAGCAUCA
B7: chr16:13835293:13835294:+_ENSMUSG00000022681_ENSMUST00000136618|mus_mus|motif|central (ssRNA)
RNA: GGGAGUUCUACAGUCCGACGAUCAGGAAAGAGUAUAUUCUCUGGAGAUGGGAAUUUUUUUAAAAACAUCAAGGUAGAUCGGAUAUGUUCAACAAAGUGGGGGGGCUCGGCCAGAGGAGACGUGGAAAGGCUCUCUAGGAUUUGCAACAGAGGAUUGAGCAUCA
B8: 47741279_47743844_752_3pUTR_ENSMUSG00000023988_ENSMUST00000024783|mouse|control|control (ssRNA)
RNA: GGGAGUUCUACAGUCCGACGAUCACAGUCUCCACCUCUGUCUGCUUCUCCGUCAACUUCUCCAUGAUGAUAUCAGCCAGGGUGCGCCUCACGGGAGGAUUCUUGUUCAUGAACAUUUCAAUGGCACGCUCAUCUUCAGGGUCCCAACAGAGGAUUGAGCAUCA
B9: chr15:99544167:99544168:+_ENSMUSG00000023018_ENSMUST00000023759|mus_mus|FALSE|FALSE (ssRNA)
RNA: GGGAGUUCUACAGUCCGACGAUCCCCAGGGCUGUCCAGUGUCACUGUGGGGAGGACCUUCCAAGGGGAGGGGUGGAUAUAGGACAUGGGAGGACAGGGAGAAGACUGCUGUCCCCAGUACAGAACAGGCUGGGAAGGGUGCAGCAACAGAGGAUUGAGCAUCA
B10: chr2:217001844:217001845:+_ENSG00000079246_ENST00000392132|hu_hu|hu_hu_hu_mus_False|58_98 (ssRNA)
RNA: GGGAGUUCUACAGUCCGACGAUCACCAACUUGAGGAUUAGCUCUUUUGUCAUAAGCAUAUCGGACGAUGGCGACCAUGUCUAAGUCAUCCAAAGCAUGAACGAGAGAGGAAAGGGCAACAGCUGCCGCCUCAUCAUCCUUUGCCAACAGAGGAUUGAGCAUCA
B11: 38352980_38353100_4098_CDS_ENSMUSG00000044864_ENSMUST00000156038|mouse|control|control (ssRNA)
RNA: GGGAGUUCUACAGUCCGACGAUCCUUCUUGUAGUUGAAGCUGGGGUCAGAGCCCUCAAUCUGGAGCUUCAGGGCUUGUUUGAGGUUCAGCUCUGUCUCCGAGGGGGGGAAGCCCUCCAGCACCUCCUGAUGCCCUCGCUCCUGCAACAGAGGAUUGAGCAUCA
B12: 91027473_91029270_3994_CDS_ENSG00000140575_ENST00000268182|human|control|control (ssRNA)
RNA: GGGAGUUCUACAGUCCGACGAUCCAACAGGAGAGUGUGGGUGUUGAUGAUUUCACCAAUGGAAAUGUAGAUUACUGGUUUGGUGAGGGUUACUAAAUCAGAGUACUCAUCCACAUUAAAUUUAUCCUGAAGCUCUGGGACAUCCAACAGAGGAUUGAGCAUCA
B13: chrX:153712385:153712386:-_ENSG00000102178_ENST00000369660|hu_mus|FALSE|FALSE (ssRNA)
RNA: GGGAGUUCUACAGUCCGACGAUCGUAAAUUUACUGUGUUUUUAAACCAAUUACUGGAAACCAAAAGCAGUCUAGCUUAUUAAUAGAGUUCCUUUUGGUGAAAUGACUCACAUGCAUCUUUAGUGUUAAUUUUACAAAUACGUUCAACAGAGGAUUGAGCAUCA
B14: chr8:95500983:95500984:-_ENSG00000164944_ENST00000437199|hu_hu|hu_hu_hu_mus_True|58_78 (ssRNA)
RNA: GGGAGUUCUACAGUCCGACGAUCAGAACACAUCUAUCGAGUAAAGGACCGUACAUGGACGACCUCUCCACUGCCUCCCACUAACAACUUUCCUCUCGAGCCUCCACUGCCGCUAUUUGUACUAGCCCAGGACGGUCCCAGGCCCAACAGAGGAUUGAGCAUCA

Each binder was assayed against T1, UNK ZnF1-3 (assay: nsRBNS (natural sequence RNA bind-n-seq); RBNS binding buffer (assumed for nsRBNS): 25 mM Tris pH 7.5, 150 mM KCl, 3 mM MgCl2, 0.01% Triton X-100, 500 ug/ml BSA, 20 U/ml SUPERase-In, 4 C; UNK is unkempt and MSI1 is Musashi-1; names of the RNAs are library labels; protein concentration not given here; high values mean tight binding).

Binder | binding signal
B1 | 1.14 enrichment R
B2 | 1.02 enrichment R
B3 | 0.732 enrichment R
B4 | 1.12 enrichment R
B5 | 1.68 enrichment R
B6 | 0.468 enrichment R
B7 | 2.1 enrichment R
B8 | 0.769 enrichment R
B9 | 1.41 enrichment R
B10 | 2.12 enrichment R
B11 | 0.385 enrichment R
B12 | 1.34 enrichment R
B13 | 0.592 enrichment R
B14 | 1.45 enrichment R
